Screen size: about 370,000 compounds; about 150 (0.041%) were called active. This list was built around the results that the source calls inconclusive (neither active nor inactive); the mix of calls is not that of the screen. Calls follow the shape of the dose curve; as a rule, active = well fitted inhibition curve with a large enough effect; inconclusive = small, poorly fitted or top-dose-only effect; inactive = flat fitted curve, though single readings scatter. Potencies of inconclusive entries are left out as doubtful fits.
These molecules were tested against Beta-lactamase (Escherichia coli (strain K12)) (UniProt P00811) (assay: qHTS Inhibitors of AmpC Beta-Lactamase (assay with detergent)). Details: AmpC hydrolysis of nitrocefin, absorbance 480 nm, 0.01% Triton; activity change, negative = inhibition: at 114 µM (top of the series).
How it was run: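 AmpC (5.3 nM in the dispensed reagent) in 20 mM phosphate pH 7.0 with 0.01% (detergent screen) or 0.0001% Triton X-100 was preincubated with compounds for 15 min at room temperature. Nitrocefin was then added from an 800 uM solution, and hydrolysis was followed at 480 nm.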
Also: nearly all actives have a fitted effect of over 25% in size.
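For activity change, negative = inhibition in this document: 0% = no-compound wells and -100% = no-enzyme wells.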
Potency is read from the fitted curve at half-maximal effect; tags tell the direction and shape of the fitted curve.

UniProt P00811, sequence (P00811 whole entry, looked up): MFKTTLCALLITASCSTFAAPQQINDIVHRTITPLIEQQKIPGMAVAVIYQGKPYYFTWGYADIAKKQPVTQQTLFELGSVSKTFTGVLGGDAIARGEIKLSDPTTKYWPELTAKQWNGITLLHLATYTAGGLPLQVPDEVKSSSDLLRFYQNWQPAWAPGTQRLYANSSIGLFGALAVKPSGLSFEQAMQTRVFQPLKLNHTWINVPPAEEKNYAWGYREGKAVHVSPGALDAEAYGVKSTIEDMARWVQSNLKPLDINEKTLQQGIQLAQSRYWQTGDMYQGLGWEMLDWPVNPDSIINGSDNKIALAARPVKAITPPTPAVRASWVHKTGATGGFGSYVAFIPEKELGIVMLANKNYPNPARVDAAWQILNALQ

SMILES | Potency | activity change, negative = inhibition
CC(C)NS(=O)(=O)c1ccc(OCC(=O)Nc2ccc3c(c2)OCCO3)cc1 | inconclusive [inhibitor, full curve, poor fit] | 
Cc1cc(OC(C)C(=O)N(Cc2ccco2)C2CCS(=O)(=O)C2)ccc1Cl (stereo not given) | inconclusive [inhibitor, full curve, poor fit] | 
CC(=O)c1ccc(N2CCN(S(=O)(=O)c3ccc4[nH]c5c(c4c3)CCCC5)CC2)cc1 |  | inactive: 1.71%
CCCCn1c(N)c(N(CCC(C)C)C(=O)CC2CCCC2)c(=O)[nH]c1=O | inconclusive [inhibitor, full curve] | 
Cn1c(=O)c2c(nc(CN3CCN(C(=O)c4ccco4)CC3)n2CCCc2ccccc2)n(C)c1=O |  | inactive: -16.4%
COc1ccc(N2CCN(c3oc(-c4ccco4)nc3C#N)CC2)cc1 | inconclusive [inhibitor, full curve, poor fit] | 
Cc1ccc(-n2nnnc2CNC(=O)C(C)C)cc1C |  | inactive: 23%
COCCNC(=O)CSc1ccccc1C(=O)NCC1CCCCC1 | inconclusive [inhibitor, partial curve] | 
c1ccc(-c2nnc(N3CCN(c4ccccn4)CC3)c3ccccc23)cc1 |  | inactive: 0.651%
CCOc1ccc(NC(=O)CNC(=O)c2ccc([N+](=O)[O-])cc2)cc1 | inconclusive [inhibitor, partial curve] | 
O=c1ccn(-c2cccc(C(F)(F)F)c2)nc1-c1ccn(-c2ccccc2)n1 |  | inactive: -4.75%
O=C(O)CN1C(=O)C(=O)N(Cc2ccccc2F)C1=O |  | inactive: -12.7%
COc1ccc2[nH]c(=O)c(CN(C(=O)c3ccccn3)c3ccccc3)cc2c1 | inconclusive [inhibitor, partial curve, poor fit] | 
CCCCN(C(=O)C1CSC2(C)CCC(=O)N12)c1c(N)n(CC(C)C)c(=O)[nH]c1=O (stereo not given) | inconclusive [inhibitor, full curve, poor fit] | 
CCCc1cc(C(=O)Nc2ccc(Cl)cn2)cs1 | inconclusive [inhibitor, full curve] | 
O=C1CCC(C(=O)OCC(=O)c2ccccc2)N1 (stereo not given) | inconclusive [inhibitor, full curve, poor fit] | 
COc1ccc(C(=O)N/N=C/c2ccc(OC)c(COc3ccc(F)cc3)c2)cc1 |  | inactive: 2.77%
CN(C)[C@@H]1C(=O)C(C(N)=O)=C(O)[C@@]2(O)C(=O)C3=C(O)c4c(O)ccc(Cl)c4[C@@](C)(O)C3C[C@@H]12 (stereo not given in full) | inconclusive [inhibitor, partial curve, poor fit] | 
O=C(N/N=C/C=C/c1ccccc1)c1ccc(Br)cc1 | inconclusive [inhibitor, full curve] | 
COc1cc(OC)cc(N2CCN(S(=O)(=O)c3ccc(-n4cnnn4)cc3)CC2)c1 | inconclusive [inhibitor, full curve, poor fit] | 
COc1ccc(N=C/C=C2\C=C(c3ccccc3)OC(C)(C)O2)cc1 | inconclusive [inhibitor, full curve] | 
CCOC(=O)c1c[nH]n2c(=O)cc(C)nc12 | inconclusive [inhibitor, full curve, poor fit] | 

SMILES | Potency | activity change, negative = inhibition
CCOc1c(Cl)cc(CNC(C)(C)CC(C)(C)C)cc1OC | inconclusive [inhibitor, full curve, poor fit] | 
COC(=O)c1nc(C(=O)OC)c(C(=O)OC)nc1C(=O)OC | inconclusive [inhibitor, partial curve, poor fit] | 
COc1ccc(OC)c(CN2CCN(C(=O)c3cccc4ccccc34)CC2)c1 |  | inactive: -12.3%
CN(C(=O)COC(=O)C1CCN(S(=O)(=O)c2cccs2)CC1)C1CCS(=O)(=O)C1 (stereo not given) | inconclusive [inhibitor, full curve, poor fit] | 
OCCN(CC(O)COc1ccccc1)CC(O)Cn1ccc2ccccc21 (stereo not given) | inconclusive [inhibitor, full curve, poor fit] | 
Cc1ccc(OCc2nnc(NC(=O)OCC(C)C)s2)cc1 | inconclusive [inhibitor, single point] | 
C[N+](C)(C)CCN(Cc1ccc(Cl)cc1)c1ccccn1 | inconclusive [inhibitor, full curve, poor fit] | 
Cc1c(C(=O)OCCOC(C)C)[nH]c2c1C(=O)CC(C)(C)C2 | inconclusive [inhibitor, full curve, poor fit] | 
CCN(CC)CCCN1C(=O)c2oc3ccccc3c(=O)c2C1c1cccnc1 (stereo not given) | inconclusive [inhibitor, full curve, poor fit] | 
COCC(=O)N1CCCC(C(=O)c2ccc(C(F)(F)F)cc2)C1 (stereo not given) | inconclusive [inhibitor, full curve, poor fit] | 
CCOC(=O)CC(NC(=O)N1CCC(CN2CCC(C)CC2)CC1)c1ccccc1 (stereo not given) |  | inactive: -1.58%
COC(=O)c1ccc(OC(=O)c2ccc(OC)c(OC)c2)c(OC)c1 | inconclusive [inhibitor, full curve, poor fit] | 
NNC(=O)CSc1c(-c2cccs2)[nH]c2ccccc12 | inconclusive [inhibitor, partial curve] | 
CN(CC1CCCO1)S(=O)(=O)c1ccc(C(=O)Nc2nc3cc4c(cc3s2)OCO4)cc1 (stereo not given) | inconclusive [inhibitor, partial curve] | 
O=C(CSc1nccn1Cc1ccccc1)NCc1ccccc1Cl |  | inactive: 24.7%
COc1cccc(/C=N/Nc2ncnc(N)c2[N+](=O)[O-])c1OC |  | inactive: -4.16%
COc1ccccc1N1CCN(C(=O)CC2NC3CCCCC3NC2=O)CC1 (stereo not given) | inconclusive [inhibitor, partial curve] | 
O=C(COC(=O)/C=C/c1ccco1)NCc1ccc(Cl)cc1 |  | inactive: -15.1%
CC(C)N1CCc2c(sc(NC(=O)c3ccc(S(=O)(=O)N4CCOCC4)cc3)c2C#N)C1 |  | inactive: -8.19%
CNc1cc(CSC)nc(SCc2ccc(Cl)cc2Cl)n1 | inconclusive [inhibitor, single point] | 
CC(C)C(=O)NC(c1ccccc1)c1cc([N+](=O)[O-])c2cccnc2c1O (stereo not given) | inconclusive [inhibitor, full curve] | 
Cc1c(NC(=O)/C(C#N)=C/c2c(Oc3ccccc3)nc3ccccn3c2=O)c(=O)n(-c2ccccc2)n1C | inconclusive [inhibitor, full curve] | 

SMILES | Potency | activity change, negative = inhibition
CC(=O)Oc1ccc(/C=N/NC2=NS(=O)(=O)c3ccccc32)cc1 | inconclusive [inhibitor, full curve, poor fit] | 
CC(C)c1ccc(-c2c(C#N)c(N)nc(SCC(=O)N3CCCCCC3)c2C#N)cc1 | inconclusive [inhibitor, partial curve] | 
CN(C)c1nc(-c2ccccc2)c2cnn(Cc3ccccc3)c2n1 | inconclusive [inhibitor, full curve] | 
CN(C(=O)c1ccccc1C(=O)OCC(=O)Nc1ccc(OC(F)F)cc1)c1ccccc1 | inconclusive [inhibitor, partial curve, poor fit] | 
O=C(Nc1cccnc1)c1ccc(Cl)c(S(=O)(=O)N2CCOCC2)c1 |  | inactive: -5.35%
Cc1ccc(S(=O)(=O)NCc2ccc3c(c2)cc(C)n3C)cc1 | inconclusive [inhibitor, partial curve, poor fit] | 
CCN(c1ccc(OC)cc1)S(=O)(=O)c1ccc2[nH]c(=O)ccc2c1 |  | inactive: 24.5%
NC(=O)C(=O)NN=C1C2CC3CC(C2)CC1C3 |  | inactive: 0.515%
O=C(Nc1ccc(C2CC2(Cl)Cl)cc1)c1ccccc1Br (stereo not given) | inconclusive [inhibitor, full curve, poor fit] | 
O=C(Nc1nccs1)c1ccc(S(=O)(=O)N2CCCCC2)cc1 | inconclusive [inhibitor, full curve] | 
O=C(COc1ccccc1)Nc1nonc1NC(=O)COc1ccccc1 | inconclusive [inhibitor, full curve, poor fit] | 
Cc1ccc(S(=O)(=O)N2CCN(C(=O)C(C)Cn3cncn3)CC2)cc1C (stereo not given) | inconclusive [inhibitor, partial curve] | 
O=C(/C=C/c1ccc(Br)o1)OCc1nc2ccsc2c(=O)[nH]1 | inconclusive [inhibitor, partial curve, poor fit] | 
Cc1nn(Cc2ccccc2)c(C)c1NS(=O)(=O)c1ccccc1 | inconclusive [inhibitor, full curve] | 
N#CC[n+]1cc(-c2ccc(Cl)cc2)n2c1CCC2 | inconclusive [inhibitor, full curve, poor fit] | 
O=C(CCc1nc(-c2cccs2)no1)NCc1ccc(F)cc1Cl | inconclusive [inhibitor, partial curve, poor fit] | 
CCCCC(CC)COC(=O)c1ccccc1C(=O)OCC(CC)CCCC (stereo not given) |  | inactive: -16%
Cc1nc2cc(F)ccc2n1C1CCN(S(=O)(=O)c2ccccc2)CC1 | inconclusive [inhibitor, full curve, poor fit] | 
Cc1cc(OCc2ccc(F)cc2)nc(-c2ccccc2O)n1 | inconclusive [inhibitor, full curve, poor fit] | 
COc1ccccc1N1CCN(C(CNC(=O)c2ccc3c(c2)OCO3)c2cccnc2)CC1 (stereo not given) | inconclusive [inhibitor, partial curve, poor fit] | 
C=CCNc1nc2c(c(=O)[nH]c(=O)n2C)n1CCOc1ccccc1 | inconclusive [inhibitor, full curve, poor fit] | 
